From PubChem BioAssay (NCATS)
Values joined by “and” are separate entries in the source; they are usually repeats but may differ in a detail not shown here. Equal entries are not always repeated. The shares of active, inactive and inconclusive entries below differ from those in the screen. For part of these data: Potencies beside an inconclusive call are fits to weak or partial responses and may not hold up. Active and inactive are the calls of the source. The call rests on the fitted dose curve; in most records, active means well fitted curve in the direction sought with a large enough effect; inconclusive means small, poorly fitted or top-dose-only effect, or another doubt; inactive means no such curve, though single readings can be large; an effect the other way counts as inactive or inconclusive.

How the values were obtained:
[1] = Viability qHTS for spleen associated tyrosine kinase inhibitor (SYKi) naive MV4-11 cells (AID 1963823); settings: MV4-11 AML viability, CellTiter-Glo luminescence, 72 h; series mostly up to 45 µM; further: nearly all actives have a fitted effect of over 40% in size; further: potency means the concentration at half of the fitted maximal effect
In short: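 Read-out: CellTiter-Glo luminescence. Exposure: 72 hr, 37 C, 5% CO2, 95% humidity. Cells: MV4-11 without SYK inhibitor history, 500/well, qHTS format.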

[2] = Viability qHTS for spleen associated tyrosine kinase inhibitor (SYKi) drug resistant MV4-11 cells (AID 1963824); settings: SYKi-resistant MV4-11 viability, CellTiter-Glo, 72 h; series mostly up to 45 µM; further: nearly all actives have a fitted effect of over 35% in size
In short: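 CellTiter-Glo luminescence, read 10 min after reagent addition, reports viability after a 72 hr compound exposure. Cells are an MV4-11 line made resistant to SYK inhibition, seeded at 500 per well onto compound-containing plates.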

[3] = Cellular viability qHTS for adrenocortical cancer (ACC) cell line NCI-H295R (AID 1963990); settings: CellTiter-Glo ATP luminescence, 48 h; series mostly up to 46.1 µM; further: nearly all actives have a fitted effect of over 60% in size; further: potency means the concentration at half of the fitted maximal effect
In short: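 Readout: CellTiter-Glo luminescence, 20 min RT. Exposure: 48 h, 37C/5% CO2. Cells: NCI-H295R, ITS-DMEM serum-free. Range: up to 46 uM. Analysis: 4PL fit, IC50 plus efficacy.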

[4] = Quantitative highthroughput screen to assess conditional lethalithy of NOMO1 cells grown in RPMI1640 with untreated serum (RPMI+s) (AID 1963876); settings: NOMO1 AML cells in RPMI+serum, CellTiter-Glo viability, 48 h; viability: at 45.8 µM (top of the series); further: potency means the concentration at half of the fitted maximal effect; nearly all actives have a fitted effect of over 35% in size
In short: (§1)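 Each medium arm—HPLM with 10% dialyzed FBS, or RPMI1640 with 5 mM glucose and 10% untreated or dialyzed FBS—was screened against an 11-point, 3-fold compound titration for 48 h at 37 °C, with CellTiter-Glo luminescence as endpoint.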

[5] = Quantitative highthroughput screen to assess conditional lethalithy of NOMO1 cells grown in RPMI1640 with dialyzed fetal bovine serum (RPMI+ds) (AID 1963877); settings: NOMO1 in RPMI+dialyzed FBS viability, ATP luminescence, 48 h; series mostly up to 45.8 µM; further: potency means the concentration at half of the fitted maximal effect; nearly all actives have a fitted effect of over 30% in size
In short: as §1

[6] = Quantitative highthroughput screen to assess conditional lethalithy of NOMO1 cells grown in Human Plasma-Like Medium with dialyzed fetal bovine serum (HPLM+ds) (AID 1963878); settings: NOMO1 AML cells in HPLM+ds, CellTiter-Glo viability, 48 h; viability: at 45.8 µM (top of the series); further: potency means the concentration at half of the fitted maximal effect; nearly all actives have a fitted effect of over 35% in size
In short: as §1

[7] = Quantitative highthroughput screen to assess conditional lethalithy of P12 Ichikawa cells grown in Human Plasma-Like Medium with dialyzed fetal bovine serum (HPLM+ds) (AID 1963879); settings: ATP luminescence, 48 h; Potency: viability; series mostly up to 45.8 µM; further: potency means the concentration at half of the fitted maximal effect; nearly all actives have a fitted effect of over 35% in size
In short: as §1

[8] = Quantitative highthroughput screen to assess conditional lethalithy of P12 Ichikawa cells grown in RPMI1640 with dialyzed fetal bovine serum (RPMI+ds) (AID 1963880); settings: ATP luminescence, 48 h; Potency: P12-Ichikawa viability; series mostly up to 45.8 µM
In short: as §1

[9] = Quantitative highthroughput screen to assess conditional lethalithy of P12 Ichikawa cells grown in RPMI1640 with untreated serum (RPMI+s) (AID 1963881); settings: ATP luminescence, 48 h; Potency: viability; series mostly up to 45.8 µM
In short: as §1

[10] = Quantitative highthroughput screen to assess conditional lethalithy of SEM cells grown in Human Plasma-Like Medium with dialyzed fetal bovine serum (HPLM+ds) (AID 1963882); settings: SEM B-ALL cells in HPLM+ds, CellTiter-Glo viability, 48 h; series mostly up to 45.8 µM
In short: as §1

[11] = Quantitative highthroughput screen to assess conditional lethalithy of SEM cells grown in RPMI1640 with dialyzed fetal bovine serum (RPMI+ds) (AID 1963884); settings: SEM B-ALL cells, RPMI+dialyzed FBS, CellTiter-Glo viability, 48 h; viability: at 45.8 µM (top of the series)
In short: as §1

[12] = Quantitative highthroughput screen to assess conditional lethalithy of SEM cells grown in RPMI1640 with unreated serum (RPMI+s) (AID 1963883); settings: SEM B-ALL cells, CellTiter-Glo viability, 48 h; viability: at 45.8 µM (top of the series)
In short: as §1

[13] = Cellular viability qHTS for adrenocortical cancer (ACC) cell line SW-13 (AID 1963989); settings: SW-13 ACC cells viability, CellTiter-Glo, 48 h; activity (max response): active compounds read low; further: potency means the concentration at half of the fitted maximal effect; nearly all actives have a fitted effect of over 65% in size
In short: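 Compound titrations (up to 46 uM final, in DMSO) were applied to SW-13 cells for 48 h at 37C/5% CO2. Reading used CellTiter-Glo after 20 min at room temperature; fitted curves yielded IC50 and efficacy.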
Tags describe the fitted curve by direction and shape.

Row | SMILES | Potency [1] | Potency [2] | Potency [3] | Potency [4] | Potency [5] | Potency [6] | Potency [7] | Potency [8] | Potency [9] | Potency [10] | Potency [11] | Potency [12] | Potency [13]
1 | CC1=C(CC(=O)O)c2cc(F)ccc2/C1=C\c1ccc(S(C)=O)cc1 (stereo not drawn) | inactive | inactive | inconclusive: 29.1 µM [cytotoxic, single point] | – | – | – | – | – | – | – | – | – | –
2 | Cc1cc(C2CCCCC2)n(O)c(=O)c1 | inconclusive: 5.31 µM [cytotoxic, full curve] | – | inconclusive: 0.116 µM [cytotoxic, full curve, poor fit] | inconclusive: 18.7 µM [cytotoxic, partial curve] | inconclusive: 18.7 µM [cytotoxic, partial curve] | inconclusive: 14.8 µM [cytotoxic, partial curve] | inconclusive: 14.8 µM [cytotoxic, partial curve] | inconclusive: 13.2 µM [cytotoxic, partial curve] | inconclusive: 10.5 µM [cytotoxic, partial curve] | active: 13.2 µM | active: 13.2 µM | – | –
3 | Cc1cc(Nc2cc(CN3CCOCC3)c3nc(C)c(Cc4ccc(Cl)cc4F)n3n2)n[nH]1 | active: 146 nM and active: 148 nM | – | – | inconclusive: 9.35 µM [cytotoxic, full curve] | inconclusive: 9.35 µM [cytotoxic, full curve] | inconclusive: 8.33 µM [cytotoxic, full curve] | inconclusive: 8.33 µM [cytotoxic, single point] | active: 7.43 µM | inconclusive: 5.9 µM [cytotoxic, full curve] | – | – | active: 2.09 µM | –
4 | CCCS(=O)(=O)Nc1ccc(F)c(C(=O)c2c[nH]c3ncc(Cl)cc23)c1F | active: 11.6 µM | – | inconclusive: 11.2 µM [cytotoxic, full curve] | inconclusive: 11.8 µM [cytotoxic, partial curve] | inconclusive: 13.2 µM [cytotoxic, partial curve] | inconclusive: 8.33 µM [cytotoxic, full curve] | inconclusive: 13.2 µM [cytotoxic, partial curve] | inconclusive: 14.8 µM [cytotoxic, partial curve] | inconclusive: 18.7 µM [cytotoxic, partial curve] | – | – | – | inconclusive: 22.4 µM [cytotoxic, single point]
5 | CCc1cc2c(cc1N1CCC(N3CCOCC3)CC1)C(C)(C)c1[nH]c3cc(C#N)ccc3c1C2=O | active: 0.178 µM | – | inactive | inconclusive: 0.0105 µM [rising, full curve] | inconclusive: 0.0166 µM [rising, full curve] | inconclusive: 0.0105 µM [rising, full curve] | inconclusive: 0.0105 µM [rising, full curve, poor fit] | inconclusive: 0.0074 µM [rising, full curve] | inconclusive: 0.0074 µM [rising, full curve] | inconclusive: 0.0105 µM [rising, full curve, poor fit] | – | inconclusive: 14.8 µM [cytotoxic, partial curve, poor fit] | –
6 | NS(=O)(=O)c1cc2c(cc1Cl)CN(C1CCCCC1)C2=O | inconclusive: 4.22 µM [cytotoxic, partial curve, poor fit] | inactive | inconclusive: 29.1 µM [cytotoxic, single point] | – | – | – | – | – | – | – | – | – | –
7 | O=C(Nc1ncc(SCCN2CCCC2)s1)[C@]1(c2ccc(S(=O)(=O)C3CC3)cc2)C[C@@H]1C1CCCCC1 | active: 2.59 µM | – | – | inconclusive: 33.2 µM [cytotoxic, single point] | active: 23.5 µM | active: 18.7 µM | inconclusive: 20.9 µM [cytotoxic, single point] | inconclusive: 20.9 µM [cytotoxic, partial curve] | inconclusive: 37.2 µM [cytotoxic, single point] | inconclusive: 23.5 µM [cytotoxic, partial curve, poor fit] | inconclusive: 23.5 µM [cytotoxic, single point] | inconclusive: 33.2 µM [cytotoxic, single point] | –
8 | CS(=O)(=O)N(Cc1ccco1)CC(O)Cn1c2ccccc2c2ccccc21 (stereo not drawn) | inconclusive: 13 µM [cytotoxic, partial curve] and inconclusive: 16.6 µM [cytotoxic, partial curve] | – | – | inconclusive: 37.2 µM [cytotoxic, single point] | inconclusive: 23.5 µM [cytotoxic, single point] | inconclusive: 23.5 µM [cytotoxic, single point] | inconclusive: 33.2 µM [cytotoxic, single point] | inconclusive: 23.5 µM [cytotoxic, single point] | inconclusive: 26.4 µM [cytotoxic, single point] | active: 18.7 µM | – | active: 14.8 µM | inconclusive: 31.6 µM [cytotoxic, single point]
